# Screen size: about 150,000 compounds; about 540 (0.36%) showed an effect of 50% or more. The list shows a part of the results.
# Test system: Plasmodium falciparum
# Experiment: Primary screen in NF54 nanoGlo assay, in single point, at 2uM, 72h; a lower Z score goes with more inhibition
# Assay type: functional, Erythrocyte
# Settings: timepoint 72 hour
Structure (SMILES),% Inhibition,Z score
CN1CCCN(C(=O)C2CCCCC2)c2nc3ccccc3nc21,-5%,0.93
COc1ccc(NC(=O)[C@H]2C[C@H](Cc3ccc(O)cc3)N[C@]23C(=O)Nc2c3ccc(C)c2C)cc1,-2%,0.21
COc1cc(-c2ccccc2)ccc1CNC[C@]1(O)CCOC1,-3%,0.36
Cc1cc(C(=O)NC(C)C)ccc1NCCCC(C)(C)C#N,1%,-0.18
O=C(c1ccncc1)N1C[C@H]2CC[C@@H](C1)N(Cc1ccc3occc3c1)C2,-11%,2.03
CC(OCC1CCCCO1)c1nc(-c2cccc(-n3cccn3)n2)no1 (centres undefined),-8%,1.18
Cc1ocnc1C(=O)N1CCC2(CCC(=O)N(CCc3c[nH]cn3)C2)CC1,-10%,1.23
Nc1nc2cc(C(=O)N3CCO[C@H](c4ccccc4)C3)ccc2s1,0%,-0.01
O=C(c1ccc(F)cc1)[C@H]1CCCN(C(=O)CCc2ccncc2)C1,-6%,0.89
O=S(=O)(NC[C@H]1O[C@@H](CO)[C@@H](O)[C@H]1N1CCOCC1)c1cccs1,-10%,1.49
Cc1nnsc1C(=O)N[C@H]1CC[C@H](Oc2cnccn2)CC1,-9%,1.03
CN(C[C@H]1CCCOC1)S(=O)(=O)c1ccc(Br)cc1,4%,-0.86
CC[C@H](NCC(=O)N1CCCC1)C(=O)OC,-3%,0.44
COc1cccc(CN2CCN3C(=O)c4ccccc4OCC[C@@H]4CC[C@@H](NC(=O)C5CCOCC5)[C@@H](CNC(=O)[C@@H]3C2)O4)c1,-8%,1.24
CCOc1cccc(-n2cc(-c3ccccc3)nc2NC(=O)CN(Cc2ccco2)C(=O)c2ccc(Cl)cc2Cl)c1,-4%,0.51
O=C(c1ccc2nc(-c3ccccc3)cn2c1)N1CCNCC1,-9%,1.73
CCNC1CC(C)S(=O)(=O)c2sc(S(N)(=O)=O)cc21 (centres undefined),1%,-0.11
COCCCNC(=O)Cn1nc(-n2c(C)ccc2C)c2c(C)cc(C)nc21,-9%,0.89
CCC[C@]1(c2ccccc2)NC(=O)N(Cc2cc(C)on2)C1=O,-3%,0.38
O=C(NC(CO)CO)c1cc(COc2ccc3ncccc3c2)on1,-9%,1.78
O=C(NCc1nc(C2CCCCC2)cs1)c1ccc(S(=O)(=O)N2CCOCC2)cc1,-9%,1.47
COc1ccccc1N1CCN(C(=O)CN2C(C)CCC2C)CC1 (centres undefined),1%,-0.15
CC1CC(NC(=O)NC(CCO)C(C)(C)C)CC(C)O1 (centres undefined),5%,-0.93
Cc1noc(CCCNC(=O)COc2cc(Cl)cc(Cl)c2)n1,-8%,1.58
CCOC(=O)c1[nH]nc(NC(=O)C[C@H]2CCCO2)c1C,-13%,1.83
COc1ccc(C)cc1NC(=O)CN1C(=O)[C@H]2CCCC2=Nc2ccccc21,-5%,0.56

Structure (SMILES),% Inhibition,Z score
COc1cc(=O)n(-c2ccccc2)cc1C(=O)N1CC(Nc2ncccn2)C1,-6%,0.93
O=C(Cn1cn[nH]c1=O)NC1CCC2(CCOCC2)CC1,-5%,0.47
O=C(N[C@@H]1C[C@@H]2CC(C(=O)O)C[C@@H]21)c1cc2c(o1)CCCC2 (some centres undefined),-2%,0.31
O=C(CCCC1CCCCC1)Nc1cccc(C(=O)N2CCC(O)CC2)c1,-5%,0.62
Cc1ccc(CCN(C[C@H]2CCCO2)C(=O)c2cc(C)no2)cc1,-15%,1.32
CC1(C)CN(C(=O)NC2CC2)C2CCCC21 (centres undefined),20%,-2.56
Cc1cc(C)n(CC2(CNC(=O)C[C@@H](c3ccccc3)c3ccccn3)CC2)n1,-4%,0.73
Cc1nnc(CN(Cc2cccnc2)Cc2ccco2)o1,-3%,0.42
c1cc(-c2cc([C@H]3CCN(Cc4ccc5c(c4)CCO5)C3)ccn2)ccn1,0%,0.05
Cn1ccnc1[C@@H]1C[C@H](NC(=O)c2ccccc2)C[C@H](Cc2ccccc2)O1,-12%,1.81
CCc1noc(CN(C)C2CCCCC2S(C)(=O)=O)n1 (centres undefined),-7%,0.75
O=C(N[C@H]1[C@H](O)[C@H](O)C[C@@H]1c1ccncc1)c1ccccc1,-1%,0.18
CN1C(=O)c2ccccc2O[C@H]2CN(C(=O)c3ccccc3F)C[C@H]21,-13%,2.42
COC(=O)c1c(C)[nH]c(-c2ccc3c(c2)OCO3)c1O,-2%,0.22
COCCNC(=O)c1nn(CCC(C)C)c2c1CN(C(=O)c1cn3ccccc3n1)CC2,-2%,0.21
O=C1CN(C2CCCC2)C(=O)N1Cc1ccc(Cl)cc1Cl,-4%,0.57
CO[C@@H](CS(=O)(=O)Nc1ccc(O)cc1C(N)=O)C1CCCC1,-2%,0.27
O=C(NCc1nccs1)N1CCC[C@@]2(C=Cc3ccccc3O2)C1,-5%,0.88
CNC(=O)c1ccc(-n2cnc3cc(C)c(C)cc32)o1,0%,0
O=C(Nc1ccc2c(c1)C(O)=Nc1cccnc1O2)c1ccccc1,-5%,0.91
COc1ccc(-c2nc3cc(C)ccc3cc2CN2CCNC(=O)[C@@H]2C)cc1,-12%,1.47
O[C@H]1CCCN(c2ccnc(-c3cccc4ccnn34)n2)C1,11%,-1.44
COc1cccc(Cn2c(Cc3c[nH]c4ccccc34)n[nH]c2=O)c1,-17%,2.7
CCNC(=O)N1CC=C(C(=O)Nc2cccc(F)c2)CC1,-18%,2.72
O=C1NCCCC[C@@H]1Nc1ncnc2c(Br)cccc12,-8%,1.59
O=C(c1ccc2c(c1)OCCO2)N1CCC(n2cc(CCO)nn2)CC1,-13%,2.21

# Reference: ChEMBL document CHEMBL4888484, “Replenishing the malaria drug discovery pipeline: Screening and hit evaluation of the MMV Hit Generation Library 1 (HGL1) against asexual blood stage Plasmodium falciparum ,using a nano luciferase reporter read-out” (2022)
